Data: PubChem BioAssay (Tox21)
Several values for one entry are separate records, joined by “and”; a condition that tells them apart may be missing. Identical values can stand only once. Activity calls are given as the source filed them. Unless noted, calls follow the shape of the dose curve; as a rule, active = well fitted curve in the direction sought with a large enough effect in the repeat runs; inconclusive = weak or mixed curves; inactive = no such curve, though single readings can be large; an effect the other way counts as inactive or inconclusive.

Legend:
[1] = qHTS assay to identify small molecule antagonists of the androgen receptor (AR) signaling pathway using the MDA cell line - cell viability counter screen (AID 743041; also: nearly all actives have a fitted effect of over 45% in size; as to viability change, negative = cytotoxic: % is scaled to controls: 0 for no effect and ±100 for the full control effect); conditions: MDA-kb2 viability, CellTiter-Fluor, 16 h, cells co-treated with R1881 androgen agonist; viability change, negative = cytotoxic: at 70.3 µM (top of the series) unless noted
Outline: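 MDA-kb2 AR-luc cells (MMTV-luciferase, AR/GR responsive) treated with compounds plus R1881 agonist for 16 h at 37C. CellTiter-Fluor added at 15.5 h; fluorescence read after 30 min in the same wells.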

[2] = qHTS assay to identify small molecule antagonists of the thyroid receptor (TR) signaling pathway - cell viability counter screen (AID 743064); conditions: GH3.TRE-Luc viability, CellTiter-Fluor, 24 h; activity change, negative = cytotoxic: at 70.3 µM (top of the series) unless noted; also: nearly all actives have a fitted effect of over 50% in size; as to activity change, negative = cytotoxic: % is scaled to controls: 0 for no effect and ±100 for the full control effect
Outline: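 Fluorescence from CellTiter-Fluor, added after 23.5 h exposure at 37 °C, reported viability of GH3.TRE-Luc cells co-treated with compound and 1 nM T3. Measured in the same wells as the luciferase TR readout.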

[3] = molecular target: Estrogen receptor (Homo sapiens) (UniProt P03372); test: qHTS assay to identify small molecule antagonists of the estrogen receptor alpha (ER-alpha) signaling pathway (AID 743069; active = well fitted curve in the direction sought with a large enough effect in the signal ratio in the repeat runs, not every such curve was filed as active; inconclusive = weak or mixed curves, or effect the other way; inactive = no such curve, though single readings can be large or run the other way; the % refers to the signal ratio); conditions: HEK293 ER-alpha-UAS-bla, beta-lactamase ratio, antagonist mode; activity, negative = inhibition: at 69.4 µM (top of the series) unless noted
Outline: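 HEK293 ER-alpha-UAS-bla GripTite cells, held overnight in 2% charcoal-stripped FBS, 5,000 cells/well, preincubated 4 h, then compound plus 17beta-estradiol for 18 h at 37C. Beta-lactamase read by LiveBLAzer B/G FRET substrate, 2 h at room temperature.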

[4] = qHTS assay to identify small molecule antagonists of the estrogen receptor alpha (ER-alpha) signaling pathway - cell viability counter screen (AID 743074; calls by dose curve;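 also: HEK293 cells carrying ER-alpha-UAS-bla reporter stimulated with 17beta-estradiol; nearly all actives have a fitted effect of over 45% in size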); conditions: ERalpha-bla HEK293 viability, CellTiter-Glo luminescence, 18 h; series mostly up to 69.4 µM
[5] = qHTS assay to identify small molecule antagonists of the thyroid receptor (TR) signaling pathway (AID 743065); conditions: GH3.TRE-Luc, T3-stimulated luciferase inhibition, 23.5 h; series mostly up to 70.3 µM; also: nearly all actives have a fitted effect of over 55% in size
Outline: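 GH3.TRE-Luc rat pituitary cells (two TREs driving luciferase) were dosed with compound, then stimulated with 1 nM T3 (final) for 23.5 h at 37 C. ONE-Glo luminescence was the read-out, with CellTiter-Fluor fluorescence as the cytotoxicity counter-screen.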

[6] = test system: thyroid hormone receptor (rat, GH3 cells); test: qHTS assay to identify small molecule agonists of the thyroid receptor (TR) signaling pathway (AID 743066; calls by dose curve; as to activation: % is scaled to controls: 0 for no effect and ±100 for the full control effect); conditions: GH3.TRE-Luc cells, TR agonist luciferase, 24 h; activation: at 83.9 µM (top of the series) unless noted
[7] = molecular target: Androgen receptor (Homo sapiens) (UniProt P10275); test: qHTS assay to identify small molecule antagonists of the androgen receptor (AR) signaling pathway using the MDA cell line (AID 743042; also: nearly all actives have a fitted effect of over 55% in size; as to activity change, negative = inhibition: % is scaled to controls: 0 for no effect and ±100 for the full control effect); conditions: MDA-kb2 AR-luc, MMTV luciferase, R1881 antagonist, 16 h; activity change, negative = inhibition: at 70.3 µM (top of the series)
Outline: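 MDA-kb2 breast carcinoma cells carrying MMTV-luciferase (AR/GR responsive) were co-treated with compounds and the agonist R1881 for 16 h at 37C. Inhibition read as ONE-Glo luminescence; CellTiter-Fluor fluorescence measured in parallel for cytotoxicity.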

[8] = molecular target: Estrogen receptor (Homo sapiens) (UniProt P03372); test: qHTS assay to identify small molecule agonists of the estrogen receptor alpha (ER-alpha) signaling pathway (AID 743075; calls by dose curve); conditions: HEK293 ER-alpha-UAS-bla, beta-lactamase FRET ratio, 18 h; series mostly up to 70.1 µM
Potency is read from the fitted curve at half-maximal effect; tags tell the direction and shape of the fitted curve or compound fluorescence and quenching.

Sequence of UniProt P03372 (P03372 whole entry, looked up): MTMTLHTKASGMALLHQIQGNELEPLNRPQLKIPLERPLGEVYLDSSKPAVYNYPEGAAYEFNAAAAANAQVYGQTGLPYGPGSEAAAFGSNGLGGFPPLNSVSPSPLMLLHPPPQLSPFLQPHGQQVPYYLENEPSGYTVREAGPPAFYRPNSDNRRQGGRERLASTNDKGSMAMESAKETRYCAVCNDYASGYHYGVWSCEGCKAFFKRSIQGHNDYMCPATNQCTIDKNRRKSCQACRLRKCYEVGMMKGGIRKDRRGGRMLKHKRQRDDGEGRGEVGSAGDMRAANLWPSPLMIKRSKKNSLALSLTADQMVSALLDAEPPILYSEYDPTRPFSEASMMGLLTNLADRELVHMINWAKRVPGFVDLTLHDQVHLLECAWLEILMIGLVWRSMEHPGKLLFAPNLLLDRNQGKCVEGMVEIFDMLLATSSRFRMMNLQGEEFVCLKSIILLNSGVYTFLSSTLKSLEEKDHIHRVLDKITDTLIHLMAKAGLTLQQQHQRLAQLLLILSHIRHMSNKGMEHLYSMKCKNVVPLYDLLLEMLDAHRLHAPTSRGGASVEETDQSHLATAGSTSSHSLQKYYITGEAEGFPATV
Sequence of UniProt P10275 (P10275 whole entry, looked up): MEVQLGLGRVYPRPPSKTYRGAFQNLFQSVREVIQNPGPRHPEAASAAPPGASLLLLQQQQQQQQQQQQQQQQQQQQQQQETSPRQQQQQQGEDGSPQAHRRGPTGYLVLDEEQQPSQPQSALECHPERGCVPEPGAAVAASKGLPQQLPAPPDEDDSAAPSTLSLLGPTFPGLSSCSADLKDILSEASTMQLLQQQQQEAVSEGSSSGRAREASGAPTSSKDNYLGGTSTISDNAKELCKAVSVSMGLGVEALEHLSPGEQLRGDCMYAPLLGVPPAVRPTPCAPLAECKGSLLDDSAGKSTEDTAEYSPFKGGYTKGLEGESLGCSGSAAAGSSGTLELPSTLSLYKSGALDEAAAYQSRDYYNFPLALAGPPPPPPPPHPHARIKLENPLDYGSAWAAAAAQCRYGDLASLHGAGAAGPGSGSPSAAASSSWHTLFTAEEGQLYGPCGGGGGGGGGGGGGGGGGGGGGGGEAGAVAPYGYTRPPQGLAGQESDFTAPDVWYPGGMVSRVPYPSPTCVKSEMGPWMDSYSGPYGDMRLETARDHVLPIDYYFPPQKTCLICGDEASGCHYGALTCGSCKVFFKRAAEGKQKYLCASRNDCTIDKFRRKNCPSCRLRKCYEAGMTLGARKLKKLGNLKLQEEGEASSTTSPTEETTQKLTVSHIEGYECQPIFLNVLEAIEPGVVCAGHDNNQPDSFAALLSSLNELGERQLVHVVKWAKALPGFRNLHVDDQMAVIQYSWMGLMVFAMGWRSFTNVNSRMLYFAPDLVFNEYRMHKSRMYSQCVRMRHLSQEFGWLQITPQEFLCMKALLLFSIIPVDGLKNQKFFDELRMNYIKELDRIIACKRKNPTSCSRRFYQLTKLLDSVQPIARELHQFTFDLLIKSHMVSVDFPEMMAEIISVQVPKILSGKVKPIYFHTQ

In the case of `CCn1nc(Cc2ccccc2)cc1C1CCN(C[C@H]2C[C@H](N(C)[C@@H](C(=O)O)C(C)C)C[C@@H]2c2cccc(F)c2)CC1`, the Potency [1] is reported as “inactive”, the Potency [2] is reported as active: 27.3 µM and the Potency [3] is reported as inconclusive: 27.5 µM [fluorescent, partial curve]. The Potency [4] was “inactive”.

For `O=[N+]([O-])c1ccc(O)cc1C(F)(F)F`, the Potency [1] was active: 61.1 µM, the Potency [2] was active: 54.5 µM and the Potency [5] was active: 21.7 µM. For the same compound, the activation [6] was inconclusive: -8.89% [phenotype inactive] and the Potency [4] was inconclusive: 8.71 µM [cytotoxic, partial curve, poor fit].

In the case of `c1ccc(OCc2ccc(CCCN3CCOCC3)cc2)cc1`, the Potency [1] is reported as inconclusive: 29.8 µM [cytotoxic, single point], the Potency [7] is reported as inconclusive: 33.5 µM [inhibitor, single point] and the Potency [2] is reported as inconclusive: 18.8 µM [cytotoxic, partial curve, poor fit].

For `CC1=CC(C)(C)Nc2ccccc21`, the Potency [1] was inconclusive: 26.6 µM [rising, full curve] and the Potency [2] was inconclusive: 65.1 µM [rising, single point].

For `CCOc1ccc2c(c1)C(C)CC(C)(C)N2` (stereo not given), the Potency [1] was “inactive” and the Potency [7] was “inactive”.

With `CCN(CC)CCNc1ccc(CNC=O)c2sc3ccc(OC)cc3c(=O)c12` the Potency [1] was “inactive”, the Potency [2] was active: 8.63 µM and the activation [6] was inconclusive: -8.56% [phenotype inactive]. For the same compound, the Potency [3] was inconclusive: 11 µM [falling, partial curve, poor fit] and the Potency [8] was active: 4.36 µM [inconclusive].

In the case of `Clc1ccccn1`, the Potency [1] is reported as “inactive”, the activity change, negative = cytotoxic [2] is reported as inconclusive: 41.2% and the Potency [4] is reported as “inactive”.

In the case of `Cc1ccc(/C(=C\CN2CCCC2)c2ccccn2)cc1`, the Potency [1] is reported as inconclusive: 25.6 µM [cytotoxic, partial curve, poor fit] and the Potency [2] is reported as inconclusive: 26.6 µM [cytotoxic] and inconclusive: 64.3 µM [cytotoxic, single point].

With `O=[N+]([O-])c1ccc(NCCO)c(OCCO)c1` the Potency [1] was active: 54.5 µM, the Potency [2] was inconclusive: 34.4 µM [cytotoxic, partial curve] and the Potency [5] was “inactive”. For the same compound, the Potency [4] was inconclusive: 1.74 µM [cytotoxic, full curve, poor fit].

In the case of `OCc1cc(C(O)CNCCCCCCOCCCCc2ccccc2)ccc1O` (stereo not given), the Potency [1] is reported as inconclusive: 31.2 µM [cytotoxic, single point] and inconclusive: 29.8 µM [cytotoxic, single point], the Potency [2] is reported as active: 7.5 µM and active: 11.9 µM and the activation [6] is reported as inconclusive: -9.09% [phenotype inactive] and inconclusive: -9.84% [phenotype inactive]. The Potency [3] was inconclusive: 13.4 µM [rising, partial curve, poor fit] and the Potency [4] was inconclusive: 7.56 µM [cytotoxic, single point].

For `CCC(C)(C)C1CCC(O)CC1` (stereo not given), the Potency [1] was “inactive” and the Potency [2] was inconclusive: 15.4 µM [rising, single point].

With `O=P(OC(CCl)CCl)(OC(CCl)CCl)OC(CCl)CCl` the Potency [1] was inconclusive: 77 µM [cytotoxic, partial curve, poor fit], the Potency [2] was inconclusive: 68.2 µM [cytotoxic, single point] and inconclusive: 68.6 µM [cytotoxic, single point] and the Potency [5] was inconclusive: 68.2 µM [inhibitor, single point]. The activation [6] was inconclusive: -9.46% [phenotype inactive], the Potency [3] was inconclusive: 7.72 µM [inhibitor, partial curve, poor fit] and active: 54.9 µM [inhibitor] and the Potency [4] was inconclusive: 7.72 µM [cytotoxic, full curve, poor fit] and inactive.

For `CSc1ccc(Cl)cc1`, the Potency [1] was “inactive”, the Potency [2] was “inactive” and the Potency [4] was “inactive”.

With `CC(C)CC=O` the Potency [1] was “inactive”, the Potency [2] was inconclusive: 21.7 µM [rising, partial curve, poor fit] and the Potency [6] was “inactive”.

For `CC(C)(O)c1ccc(CNC(=O)c2cccnc2Oc2ccc(F)cc2)cc1`, the Potency [1] was “inactive” and the Potency [4] was “inactive”.

In the case of `CCNC(=O)N1CCN(CCCC(c2ccc(F)cc2)c2ccc(F)cc2)CC1`, the Potency [1] is reported as active: 26.6 µM, the Potency [5] is reported as active: 21.1 µM and the activation [6] is reported as inconclusive: -6.77% [phenotype inactive]. The Potency [3] was inconclusive: 9.52 µM [rising, full curve] and the Potency [4] was active: 16.9 µM.

For `CC(=O)Oc1ccc(C)cc1`, the Potency [7] was “inactive”.

With `Cl/C(=C\n1cncn1)c1ccc(Cl)cc1Cl` the Potency [1] was inconclusive: 13.3 µM [rising, partial curve, poor fit], the Potency [5] was inconclusive: 26.6 µM [inhibitor] and the Potency [4] was “inactive”.

In the case of `Cc1nc(-c2ccccn2)ncc1C(=O)Nn1cc(C)c2cc(F)ccc21`, the Potency [7] is reported as inconclusive: 77 µM [inhibitor, partial curve, poor fit].

For `O=C(c1ccc(O)cc1)c1ccc(O)c(O)c1O`, the Potency [1] was inconclusive: 68.9 µM [cytotoxic, partial curve, poor fit] and the Potency [4] was inconclusive: 0.246 µM [rising, full curve, poor fit].

For `CC[N+]1(CC)CCC(=C(c2ccccc2)c2ccccc2)C1C` (stereo not given), the Potency [1] was inconclusive: 33.5 µM [cytotoxic, partial curve, poor fit] and the Potency [4] was inconclusive: 8.49 µM [rising, partial curve].

For `O=C1c2cccc3c2[C@H](CCC3)CN1[C@@H]1CN2CCC1CC2`, the Potency [1] was inconclusive: 13.3 µM [cytotoxic, full curve], the Potency [5] was active: 18.8 µM and the Potency [3] was inconclusive: 10.7 µM [activator, full curve, poor fit]. For the same compound, the Potency [4] was “inactive”.

With `CCCCCCCCCCCCCCO` the Potency [1] was “inactive”, the Potency [6] was “inactive” and the activity, negative = inhibition [3] was inconclusive: -33.1% [at 79.1 µM]. The Potency [4] was inconclusive: 19.5 µM [rising, partial curve, poor fit].

With `O=S1(=O)c2cccc3cccc(c23)N1CCCN1CCN(c2ccc(F)cc2)CC1` the Potency [1] was inconclusive: 33.5 µM [cytotoxic, partial curve, poor fit], the Potency [5] was inconclusive: 33.5 µM [inhibitor] and the activity, negative = inhibition [3] was inconclusive: -29.8%. The Potency [4] was inconclusive: 12 µM [cytotoxic, partial curve, poor fit].

In the case of `CC(CCO)CC(C)(C)C` (stereo not given), the Potency [7] is reported as “inactive”.

With `C=CC(=O)NCOCCCC` the Potency [1] was “inactive”, the Potency [4] was inconclusive: 14.2 µM [cytotoxic, partial curve] and the Potency [8] was inconclusive: 71.3 µM [activator].

In the case of `C[N+](C)(CCOc1ccccc1)Cc1cccs1`, the Potency [7] is reported as inconclusive: 11.9 µM [inhibitor, partial curve, poor fit].

For `CCCCCC/C=C/C=O`, the viability change, negative = cytotoxic [1] was inconclusive: 30.2% and the Potency [5] was “inactive”.

With `CC(C)C[C@H](NC(=O)OCC1c2ccccc2-c2ccccc21)C(=O)O` the Potency [1] was “inactive” and the Potency [5] was inconclusive: 68.6 µM [inhibitor, partial curve, poor fit].

With `C=Cc1c(C)c2cc3[nH]c(cc4nc(cc5nc(cc1[nH]2)C(C)=C5CCC(=O)O)C(CCC(=O)O)=C4C)c(C)c3C=C` the Potency [1] was “inactive”, the Potency [3] was inconclusive: 10.7 µM [activator] and the Potency [4] was “inactive”. For the same compound, the Potency [8] was active: 4.25 µM [inconclusive].

With `C[N+]12CCC(CC1)C(OC(=O)C(O)(c1ccccc1)c1ccccc1)C2` (stereo not given) the Potency [1] was “inactive” and the Potency [5] was “inactive”.

For `CCCC[P+](CCCC)(CCCC)CCCC`, the Potency [1] was inconclusive: 60.9 µM [cytotoxic, single point] and inconclusive: 68.6 µM [cytotoxic, single point] and the Potency [4] was “inactive”.

For `O=C(O)CCCC(=O)O`, the Potency [1] was “inactive”, the Potency [4] was inconclusive: 21.5 µM [cytotoxic, single point] and inconclusive: 21.9 µM [cytotoxic, single point] and the Potency [8] was inconclusive: 0.0303 µM [falling, full curve].

In the case of `C=CCCCCCCCCC(=O)O`, the Potency [1] is reported as “inactive”, the Potency [5] is reported as inconclusive: 54.5 µM [inhibitor, single point] and the Potency [3] is reported as inconclusive: 61.6 µM [rising, partial curve, poor fit].

In the case of `ClC(Cl)(Br)Br`, the Potency [7] is reported as “inactive” and the Potency [2] is reported as “inactive”.

For `CCC(C(=O)OCCN(CC)CC)c1ccccc1` (stereo not given), the Potency [7] was “inactive”.

In the case of `NC[C@H]1O[C@H](O[C@H]2[C@H](O)[C@@H](O[C@H]3O[C@H](CO)[C@@H](O)[C@H](N)[C@H]3O)[C@H](N)C[C@@H]2N)[C@H](N)[C@@H](O)[C@@H]1O`, the Potency [1] is reported as inconclusive: 0.0298 µM [rising, full curve, poor fit], the Potency [6] is reported as inconclusive: 26.6 µM [activator, partial curve, poor fit] and the Potency [4] is reported as inconclusive: 10.7 µM [cytotoxic, single point].

For `COCCCOc1ccnc(CS(=O)c2nc3ccccc3[nH]2)c1C` (stereo not given), the Potency [1] was inconclusive: 68.3 µM [cytotoxic, single point], the Potency [5] was inconclusive: 29.8 µM [inhibitor, single point] and active: 48.4 µM and the Potency [4] was inconclusive: 23.9 µM [cytotoxic, single point].

With `NCCCOCCOCCOCCCN` the Potency [1] was inconclusive: 61.1 µM [cytotoxic, partial curve, poor fit] and the Potency [5] was “inactive”.

With `CC(=O)[O][Al]` the Potency [1] was “inactive” and the Potency [4] was “inactive”.

With `CCCCOC(=O)C(C)Oc1ccc(Oc2ccc(C(F)(F)F)cn2)cc1` (stereo not given) the Potency [1] was “inactive” and the activity, negative = inhibition [3] was inconclusive: -31.3%.

For `CN1CCC(=C2c3ccccc3Sc3ccccc32)CC1`, the Potency [1] was inconclusive: 29.8 µM [cytotoxic, single point], the activation [6] was inconclusive: -8.13% [phenotype inactive] and the Potency [3] was inconclusive: 26.8 µM [single point]. The Potency [4] was inconclusive: 10.7 µM [cytotoxic, partial curve, poor fit] and the Potency [8] was inconclusive: 3.01 µM [falling, full curve].
